Measurements published in article PMC3060616.
No constants are given. Whether binding was seen depends on the method and setting. In cells and extracts the contact can be indirect. Some entries that bind do so weakly or less than the wild type.

T1: PBP1A, purified (E. coli) (UniProt P02918)
T1 sequence: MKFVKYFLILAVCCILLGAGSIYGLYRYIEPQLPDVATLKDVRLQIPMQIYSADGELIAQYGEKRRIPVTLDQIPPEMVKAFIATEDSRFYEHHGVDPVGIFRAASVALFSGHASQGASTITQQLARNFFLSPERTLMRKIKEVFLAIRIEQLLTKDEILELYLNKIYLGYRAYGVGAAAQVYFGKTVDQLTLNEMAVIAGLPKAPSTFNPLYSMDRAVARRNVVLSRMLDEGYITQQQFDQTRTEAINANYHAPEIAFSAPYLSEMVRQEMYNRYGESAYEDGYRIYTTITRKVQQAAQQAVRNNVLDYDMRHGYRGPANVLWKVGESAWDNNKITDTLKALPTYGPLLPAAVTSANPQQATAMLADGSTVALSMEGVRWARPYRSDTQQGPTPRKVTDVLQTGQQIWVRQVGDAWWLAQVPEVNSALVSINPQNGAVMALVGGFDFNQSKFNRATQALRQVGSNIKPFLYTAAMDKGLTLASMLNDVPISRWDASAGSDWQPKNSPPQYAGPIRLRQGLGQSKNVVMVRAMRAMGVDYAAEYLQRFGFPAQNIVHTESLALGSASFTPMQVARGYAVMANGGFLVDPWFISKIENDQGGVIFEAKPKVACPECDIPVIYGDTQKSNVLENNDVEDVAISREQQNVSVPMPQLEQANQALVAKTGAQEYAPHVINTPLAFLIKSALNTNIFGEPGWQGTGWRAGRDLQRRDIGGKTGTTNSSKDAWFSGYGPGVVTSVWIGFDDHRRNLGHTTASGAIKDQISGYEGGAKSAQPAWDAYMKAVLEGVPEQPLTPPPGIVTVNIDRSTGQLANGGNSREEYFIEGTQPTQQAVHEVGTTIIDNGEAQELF

T2: LpoB (YcfM), immobilised / added protein (E. coli) (UniProt P0AB38)
T2 sequence: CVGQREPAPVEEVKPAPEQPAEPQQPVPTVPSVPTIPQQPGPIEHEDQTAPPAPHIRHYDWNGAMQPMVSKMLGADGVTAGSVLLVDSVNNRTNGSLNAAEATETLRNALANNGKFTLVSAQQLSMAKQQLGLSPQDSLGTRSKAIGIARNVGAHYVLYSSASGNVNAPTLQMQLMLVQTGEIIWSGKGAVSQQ

T3: LpoA (YraM), immobilised / added protein (E. coli) (UniProt P45464)
T3 sequence: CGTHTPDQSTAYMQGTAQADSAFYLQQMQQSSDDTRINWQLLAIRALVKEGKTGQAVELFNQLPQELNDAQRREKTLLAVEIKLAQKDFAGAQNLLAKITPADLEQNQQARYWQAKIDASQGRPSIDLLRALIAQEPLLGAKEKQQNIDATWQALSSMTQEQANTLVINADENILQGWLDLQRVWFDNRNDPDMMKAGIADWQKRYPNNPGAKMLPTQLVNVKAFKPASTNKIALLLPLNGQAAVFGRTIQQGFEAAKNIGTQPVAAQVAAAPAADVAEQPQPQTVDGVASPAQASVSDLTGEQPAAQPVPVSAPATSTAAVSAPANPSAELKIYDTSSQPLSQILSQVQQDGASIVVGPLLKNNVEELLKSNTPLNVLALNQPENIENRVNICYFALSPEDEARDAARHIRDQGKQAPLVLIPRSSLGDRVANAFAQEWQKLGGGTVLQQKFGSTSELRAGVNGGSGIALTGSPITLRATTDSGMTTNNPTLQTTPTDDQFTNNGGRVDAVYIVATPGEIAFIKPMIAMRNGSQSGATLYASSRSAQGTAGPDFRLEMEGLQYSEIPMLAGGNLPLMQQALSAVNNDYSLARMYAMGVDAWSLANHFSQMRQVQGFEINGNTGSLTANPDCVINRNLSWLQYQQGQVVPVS

T4: LpoA (YraM), endogenous (E. coli (endogenous in E. coli)) (UniProt P45464)
T4 sequence: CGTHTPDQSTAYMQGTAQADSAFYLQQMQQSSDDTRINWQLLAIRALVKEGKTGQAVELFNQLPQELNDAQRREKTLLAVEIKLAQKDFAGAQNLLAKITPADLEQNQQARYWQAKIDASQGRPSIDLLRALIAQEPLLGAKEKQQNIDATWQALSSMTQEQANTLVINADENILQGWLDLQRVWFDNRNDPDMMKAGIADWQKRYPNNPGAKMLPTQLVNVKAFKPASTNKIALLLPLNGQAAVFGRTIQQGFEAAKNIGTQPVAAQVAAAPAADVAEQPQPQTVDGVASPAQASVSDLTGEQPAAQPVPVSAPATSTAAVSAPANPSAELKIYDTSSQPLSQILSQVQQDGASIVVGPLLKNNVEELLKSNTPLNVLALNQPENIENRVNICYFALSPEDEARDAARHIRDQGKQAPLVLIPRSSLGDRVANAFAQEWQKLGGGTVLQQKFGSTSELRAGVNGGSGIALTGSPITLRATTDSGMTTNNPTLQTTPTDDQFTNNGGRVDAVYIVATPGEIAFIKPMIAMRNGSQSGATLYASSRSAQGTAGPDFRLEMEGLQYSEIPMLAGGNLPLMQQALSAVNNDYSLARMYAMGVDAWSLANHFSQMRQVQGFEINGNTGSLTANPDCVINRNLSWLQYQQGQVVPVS


Key:
[1] = target: T1, PBP1A, purified (E. coli); test: pull-down; affinity chromatography: E. coli membrane fraction applied in 400 mM NaCl to sepharose columns with immobilised protein, empty sepharose as control; washed, eluted with 2 M NaCl; SDS-PAGE, Western blot and immunodetection of Lpo proteins or PBPs; only the target purified
[2] = target: T2, LpoB (YcfM), immobilised / added protein (E. coli); test: as above
[3] = target: T3, LpoA (YraM), immobilised / added protein (E. coli); test: as above
[4] = target: T4, LpoA (YraM), endogenous (E. coli (endogenous in E. coli)); test: cross-linking + co-IP; E. coli cells treated with DTSSP cross-linker in vivo; membrane fractions immunoprecipitated with LpoA or PBP1B antibodies and protein G-agarose; cross-link reverted with reducing agent; immunodetection of PBP1A or LpoB

binding [1] | binding [2] | binding [3] | binding [4] | Binder
binds | – | – | – | LpoA (YraM), endogenous (protein, UniProt P45464 27-678) CGTHTPDQSTAYMQGTAQADSAFYLQQMQQSSDDTRINWQLLAIRALVKEGKTGQAVELFNQLPQELNDAQRREKTLLAVEIKLAQKDFAGAQNLLAKITPADLEQNQQARYWQAKIDASQGRPSIDLLRALIAQEPLLGAKEKQQNIDATWQALSSMTQEQANTLVINADENILQGWLDLQRVWFDNRNDPDMMKAGIADWQKRYPNNPGAKMLPTQLVNVKAFKPASTNKIALLLPLNGQAAVFGRTIQQGFEAAKNIGTQPVAAQVAAAPAADVAEQPQPQTVDGVASPAQASVSDLTGEQPAAQPVPVSAPATSTAAVSAPANPSAELKIYDTSSQPLSQILSQVQQDGASIVVGPLLKNNVEELLKSNTPLNVLALNQPENIENRVNICYFALSPEDEARDAARHIRDQGKQAPLVLIPRSSLGDRVANAFAQEWQKLGGGTVLQQKFGSTSELRAGVNGGSGIALTGSPITLRATTDSGMTTNNPTLQTTPTDDQFTNNGGRVDAVYIVATPGEIAFIKPMIAMRNGSQSGATLYASSRSAQGTAGPDFRLEMEGLQYSEIPMLAGGNLPLMQQALSAVNNDYSLARMYAMGVDAWSLANHFSQMRQVQGFEINGNTGSLTANPDCVINRNLSWLQYQQGQVVPVS
– | no binding | binds | binds | PBP1A, endogenous (enzyme, UniProt P02918 1-850) MKFVKYFLILAVCCILLGAGSIYGLYRYIEPQLPDVATLKDVRLQIPMQIYSADGELIAQYGEKRRIPVTLDQIPPEMVKAFIATEDSRFYEHHGVDPVGIFRAASVALFSGHASQGASTITQQLARNFFLSPERTLMRKIKEVFLAIRIEQLLTKDEILELYLNKIYLGYRAYGVGAAAQVYFGKTVDQLTLNEMAVIAGLPKAPSTFNPLYSMDRAVARRNVVLSRMLDEGYITQQQFDQTRTEAINANYHAPEIAFSAPYLSEMVRQEMYNRYGESAYEDGYRIYTTITRKVQQAAQQAVRNNVLDYDMRHGYRGPANVLWKVGESAWDNNKITDTLKALPTYGPLLPAAVTSANPQQATAMLADGSTVALSMEGVRWARPYRSDTQQGPTPRKVTDVLQTGQQIWVRQVGDAWWLAQVPEVNSALVSINPQNGAVMALVGGFDFNQSKFNRATQALRQVGSNIKPFLYTAAMDKGLTLASMLNDVPISRWDASAGSDWQPKNSPPQYAGPIRLRQGLGQSKNVVMVRAMRAMGVDYAAEYLQRFGFPAQNIVHTESLALGSASFTPMQVARGYAVMANGGFLVDPWFISKIENDQGGVIFEAKPKVACPECDIPVIYGDTQKSNVLENNDVEDVAISREQQNVSVPMPQLEQANQALVAKTGAQEYAPHVINTPLAFLIKSALNTNIFGEPGWQGTGWRAGRDLQRRDIGGKTGTTNSSKDAWFSGYGPGVVTSVWIGFDDHRRNLGHTTASGAIKDQISGYEGGAKSAQPAWDAYMKAVLEGVPEQPLTPPPGIVTVNIDRSTGQLANGGNSREEYFIEGTQPTQQAVHEVGTTIIDNGEAQELF
